According to PubChem BioAssay AID1768 (National Center for Advancing Translational Sciences (NCATS), 2009):
Where “and” joins values, the source holds several entries; their conditions need not be identical. Equal values may be shown once. Out of some 270,000 compounds screened, about 620 (0.23%) were called active. The inconclusive results got no clear call from the source; some entries with a clear call stand among them for comparison. Calls come from the whole dose curve; as a rule, active = well fitted inhibition curve with a large enough effect in the polarisation, with a control signal flat (not every such curve was filed as active); inconclusive = small, poorly fitted or top-dose-only effect, or effect the other way, or a change in a side signal; inactive = no such curve, though single readings can be large or run the other way; the % refers to the polarisation. Where the call is inconclusive, the potency comes from a doubtful curve fit. A note “side channel” means that the fit belongs to a control or component signal, not to the main read-out.

Biological target: Menin (Homo sapiens) (UniProt O00255)
Experiment: qHTS Assay for Inhibitors Targeting the Menin-MLL Interaction in MLL Related Leukemias: Competition With Texas Red Labeled MLL-derived Mutant Peptide; for FP activity change, negative = inhibition: % of control where 0% means no effect
Settings: fluorescence polarization; FP activity change, negative = inhibition: at 61.6 µM (top of the series)
Potency is the fitted concentration of half-maximal effect; tags give direction and shape of the fitted curve or compound fluorescence and quenching.

UniProt O00255, sequence (O00255 whole entry, looked up): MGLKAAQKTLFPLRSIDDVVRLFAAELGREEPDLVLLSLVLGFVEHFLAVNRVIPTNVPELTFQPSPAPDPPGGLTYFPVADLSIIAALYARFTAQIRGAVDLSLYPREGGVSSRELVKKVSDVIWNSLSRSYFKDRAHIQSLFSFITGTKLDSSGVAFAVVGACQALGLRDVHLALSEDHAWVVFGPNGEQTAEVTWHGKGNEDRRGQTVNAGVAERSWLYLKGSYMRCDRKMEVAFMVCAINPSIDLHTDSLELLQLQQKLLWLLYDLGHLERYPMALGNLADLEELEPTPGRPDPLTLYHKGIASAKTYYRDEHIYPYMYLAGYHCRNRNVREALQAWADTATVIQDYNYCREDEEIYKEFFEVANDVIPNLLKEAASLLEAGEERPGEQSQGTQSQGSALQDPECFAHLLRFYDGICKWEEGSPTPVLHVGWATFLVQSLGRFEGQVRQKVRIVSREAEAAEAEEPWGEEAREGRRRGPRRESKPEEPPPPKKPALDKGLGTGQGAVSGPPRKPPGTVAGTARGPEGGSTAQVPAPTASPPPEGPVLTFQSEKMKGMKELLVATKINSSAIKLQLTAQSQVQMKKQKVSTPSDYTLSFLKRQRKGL

Q: `O=C1OCCN1C(=O)[C@H]1[C@H](c2ccc([N+](=O)[O-])cc2)C(c2ccccc2)=NN1c1ccc(Br)cc1` was tested. Which Potency did it give?
A: inconclusive: 2.24 µM [quencher, side channel, full curve]

Q: `Cc1ccc(Nc2c(F)c(F)c(F)c(F)c2C(=O)O)cc1` was tested. Which Potency did it give?
A: inconclusive: 39.8 µM [quencher, side channel, single point]

Q: How did the Potency turn out when `CCOc1ccc(N2C(=O)C3Sc4[nH]c(=O)sc4C(/C=C/c4ccccc4)C3C2=O)cc1` (stereo unspecified) was run?
A: inconclusive: 10 µM [quencher, side channel, partial curve]

Q: For `COC(=O)c1ccc(/C=N/OCC(=O)NC2CCCCCCC2)cc1`, which Potency is on record?
A: inconclusive: 12.6 µM [fluorescent, side channel, partial curve]

Q: How did the Potency turn out when `O=C1OCCN1C(=O)[C@H]1[C@H](c2ccc(F)cc2)C(c2ccc(F)cc2)=NN1c1ccc(Br)cc1` was run?
A: inconclusive: 8.91 µM [quencher, side channel, partial curve] and inconclusive: 1.26 µM [quencher, side channel, full curve]

Q: With `O=C(CC1CCCCC1)Nc1ncn[nH]1` as the compound, how does the Potency read?
A: inconclusive: 31.6 µM [inhibitor, single point]

Q: Which Potency does the source give for `CC(C)NCC(O)Cn1c2c(c3ccccc31)CCc1c-2cnn1-c1ccccc1` (stereo unspecified) here?
A: inconclusive: 3.55 µM [fluorescent, side channel, full curve]

Q: How did the Potency turn out when `CCCc1cc(C(N)=O)c(NC(=O)c2ccoc2C)s1` was run?
A: inconclusive: 28.2 µM [quencher, side channel, single point]

Q: How did the Potency turn out when `O=C(CSc1ncn[nH]1)Nc1nc(-c2ccccc2)cs1` was run?
A: inconclusive: 35.5 µM [quencher, side channel, single point]

Q: How did the Potency turn out when `O=C(CSc1nccn1-c1ccc(Cl)cc1)Nc1ccc2c(c1)OCO2` was run?
A: inconclusive: 6.31 µM [inhibitor, full curve, poor fit]

Q: `CCc1c(C)nc2cc(-c3cc(OC)cc(OC)c3)nn2c1N1CCCC1` was tested. Which Potency did it give?
A: inactive

Q: `Clc1ccccc1CSC1=NCCCN1` was tested. Which Potency did it give?
A: inactive

Q: How did the Potency turn out when `Cc1ccsc1/C=N/Nc1cccc(C(=O)O)c1` was run?
A: inconclusive: 28.2 µM [quencher, side channel, single point]

Q: For `O=C(c1ccncc1)N1CCC[C@@]2(CCN(Cc3ccccc3)C2)C1`, which Potency is on record?
A: inactive

Q: Which Potency does the source give for `CCCCC12CN3CCN(CC(C3)/C1=N\NC(=O)Nc1ccccc1)C2` here?
A: inconclusive: 0.631 µM [fluorescent, side channel, full curve, poor fit]

Q: With `COc1cc(/C=C/C(=O)NCc2cccnc2)cc(OC)c1OC` as the compound, how does the Potency read?
A: inactive

Q: How did the Potency turn out when `COc1cccc(Nc2ncc3nc(-c4cc(F)cc(F)c4)c(=O)n(C4CC4)c3n2)c1` was run?
A: inconclusive: 7.94 µM [quencher, side channel, full curve, poor fit]

Q: How did the Potency turn out when `COc1ccccc1CC(=O)Nc1cc(Cl)ccc1O` was run?
A: inconclusive: 20 µM [quencher, side channel, partial curve]

Q: With `CC1CCN(C2(O)C(=O)Nc3ccc(Cl)cc32)CC1` (stereo unspecified) as the compound, how does the Potency read?
A: inconclusive: 31.6 µM [inhibitor, single point]

Q: Which Potency does the source give for `O=C(CCc1nc(-c2ccccc2F)no1)Nc1ccc(Oc2ccccc2)cc1` here?
A: inconclusive: 10 µM [quencher, side channel, partial curve]

Q: How did the Potency turn out when `Cc1ccc2nc3sc(C(=O)Nc4c(C)[nH]c(=O)[nH]c4=O)c(N)c3cc2c1` was run?
A: inconclusive: 39.8 µM [inhibitor, single point]

Q: With `Cc1ccc(Nc2nc(-c3cccs3)cs2)nc1` as the compound, how does the Potency read?
A: inconclusive: 25.1 µM [quencher, partial curve]

Q: For `CCNC(=S)N(Cc1cc2cc(C)cc(C)c2[nH]c1=O)C1CCCC1`, which Potency is on record?
A: inconclusive: 39.8 µM [fluorescent, side channel, single point]

Q: `COc1ccccc1NC(=O)Cn1nnc(C(=O)NCc2ccc3c(c2)OCO3)c1N` was tested. Which Potency did it give?
A: inconclusive: 39.8 µM [fluorescent, side channel, single point]

Q: Which Potency does the source give for `CCn1c(CSc2nnc(-c3ccncc3)n2CCOC)nc2cc(C(=O)O)ccc21` here?
A: inconclusive: 25.1 µM [fluorescent, side channel, partial curve]

Q: `Cc1nn(Cc2ccccc2Cl)c(C)c1NC(=O)NC12CC3CC(CC(C3)C1)C2` was tested. Which Potency did it give?
A: inconclusive: 5.01 µM [inhibitor, full curve, poor fit]

Q: How did the Potency turn out when `COc1ccccc1-c1ccc2ncnc(N3CCOCC3)c2c1` was run?
A: inconclusive: 44.7 µM [inhibitor, partial curve, poor fit]

Q: How did the Potency turn out when `COc1ccc(/C=N/Nc2cc(C)nc3ccccc23)cc1` was run?
A: inconclusive: 35.5 µM [inhibitor, single point]

Q: For `COc1ccc([N+](=O)[O-])cc1NCc1cccc([N+](=O)[O-])c1`, which Potency is on record?
A: inconclusive: 28.2 µM [quencher, side channel, partial curve]

Q: Which Potency does the source give for `CC(=O)C1C(=O)c2c(cccc2[N+](=O)[O-])C1=Nc1ccc(S(N)(=O)=O)cc1` (stereo unspecified) here?
A: inconclusive: 20 µM [quencher, side channel, partial curve]

Q: How did the Potency turn out when `O=C(CNC(=O)COc1ccccc1)NCc1ccccc1F` was run?
A: inconclusive: 10 µM [inhibitor, partial curve]

Q: How did the Potency turn out when `O=C(O)c1ccc(N/N=C/C=C/c2ccc([N+](=O)[O-])o2)cc1` was run?
A: inconclusive: 17.8 µM [fluorescent, side channel, partial curve]

Q: For `CC1=NN(c2ccc(Cl)c(C(=O)O)c2)C(=O)/C1=C/c1ccc(-c2ccccc2[N+](=O)[O-])o1`, which Potency is on record?
A: inconclusive: 31.6 µM [quencher, side channel, single point]

Q: How did the Potency turn out when `COCC1CCN(C(=O)CCc2nnc(CCCCc3ccccc3)o2)CC1` was run?
A: inconclusive: 20 µM [fluorescent, side channel, single point]

Q: For `CC1(C)Cc2c(cnn2-c2ccc(F)cc2)C(NC(=O)CCc2ccncc2)C1` (stereo unspecified), which Potency is on record?
A: inactive

Q: How did the Potency turn out when `COc1ccc(CCNC(=O)CNCC(c2ccccc2)N(C)C)cc1OC` (stereo unspecified) was run?
A: inconclusive: 31.6 µM [inhibitor, partial curve]

Q: Which Potency does the source give for `O=C(Nc1ccc(Cl)c(Cl)c1)Nc1nc(-c2ccccc2)cs1` here?
A: inconclusive: 10 µM [quencher, side channel, partial curve]

Q: For `O=C(Nc1ccc2c(c1)OCO2)c1cc(-c2ccccc2Cl)on1`, which Potency is on record?
A: inconclusive: 39.8 µM [inhibitor, single point]

Q: For `Cc1noc(/C=C/c2ccco2)c1S(=O)(=O)N1CCC(C(=O)N2CCc3ccccc32)CC1`, which Potency is on record?
A: inconclusive: 35.5 µM [quencher, side channel, single point]

Q: For `O=C(NCC1CCCCC1)c1cc(S(=O)(=O)N2CCCCC2)ccc1N1CCOCC1`, which Potency is on record?
A: inconclusive: 10 µM [fluorescent, side channel, partial curve]

Q: With `CSc1ccc(/C=N/Nc2ccc(Cl)c(C(=O)O)c2)cc1` as the compound, how does the Potency read?
A: inconclusive: 15.8 µM [quencher, side channel, partial curve]

Q: With `Cc1csc(Nc2nc(N)c(C(=O)Nc3ccccc3)o2)n1` as the compound, how does the Potency read?
A: inconclusive: 11.2 µM [quencher, side channel, partial curve]

Q: Which Potency does the source give for `C=CCOc1ccc(CN(C)CC(=O)Nc2ccc3c(c2)CCC3)cc1` here?
A: inconclusive: 25.1 µM [fluorescent, side channel, partial curve]

Q: With `Cc1cc(C)n(-c2ccc(C(=O)OCC(=O)c3ccc(Br)s3)cc2)n1` as the compound, how does the Potency read?
A: inconclusive: 10 µM [quencher, side channel, partial curve]

Q: `CC(C)(C)c1ccc(OC(=O)c2ccc3nsnc3c2)cc1` was tested. Which Potency did it give?
A: inconclusive: 44.7 µM [fluorescent, side channel, partial curve]

Q: With `Cc1cc(C)n2nc(SCc3ncc(-c4ccccc4)o3)nc2n1` as the compound, how does the Potency read?
A: inactive

Q: For `Cc1ccc(N2CC(C(=O)N3CCC(C(=O)Nc4nnc(C(C)(C)C)s4)CC3)CC2=O)cc1` (stereo unspecified), which Potency is on record?
A: inconclusive: 39.8 µM [inhibitor, single point]

Q: How did the Potency turn out when `CCc1cc2c(=O)n(-c3ccc(C)cc3)cnc2s1` was run?
A: inconclusive: 10 µM [inhibitor, partial curve, poor fit]

Q: Which Potency does the source give for `Cc1ccc(/C(O)=C2/C(=O)C(=O)N(c3ccccn3)C2c2cccc([N+](=O)[O-])c2)cc1` (stereo unspecified) here?
A: inconclusive: 25.1 µM [quencher, side channel, partial curve]

Q: Which Potency does the source give for `COc1ccc(N(C(=O)Cn2nnc3ccccc32)C(C(=O)NCc2ccco2)c2ccncc2)cc1` (stereo unspecified) here?
A: inconclusive: 6.31 µM [inhibitor, partial curve]

Q: For `COc1ccc(S(=O)(=O)N2CCC(C(=O)N3CCN(c4ccccc4OC)CC3)CC2)cc1`, which Potency is on record?
A: inconclusive: 0.708 µM [inhibitor, full curve, poor fit]

Q: With `COc1ccc(NC(=O)C(c2ccc(Cl)cc2)C(C)C)cn1` (stereo unspecified) as the compound, how does the Potency read?
A: inconclusive: 14.1 µM [quencher, side channel, single point]

Q: How did the Potency turn out when `Cc1c(Br)c([N+](=O)[O-])nn1C(C)C(=O)N1CCCc2ccccc21` (stereo unspecified) was run?
A: inconclusive: 39.8 µM [inhibitor, single point]

Q: Which FP activity change, negative = inhibition does the source give for `CCOC(=O)C(C(=O)Nc1cccc(C)n1)C1CCCCC1` (stereo unspecified) here?
A: inactive: -8.9% [at 11.7 µM]

Q: For `Cc1c(C2=CCN(S(=O)(=O)c3ccc(Cl)cc3)CC2)c2ccccc2n1C`, which Potency is on record?
A: inconclusive: 35.5 µM [fluorescent, side channel, single point]

Q: How did the Potency turn out when `O=C(O)c1[nH]c2ccccc2c1NS(=O)(=O)c1ccc(F)cc1` was run?
A: inconclusive: 15.8 µM [quencher, side channel, partial curve]
